Laboratory results reported in PubChem BioAssay AID1159614 (National Center for Advancing Translational Sciences (NCATS), 2016).
Among all 45,000 compounds or so, about 65 (0.1%) were called active. Calls follow the shape of the dose curve; as a rule, active = well fitted activation curve with a large enough effect; inconclusive = small, poorly fitted or top-dose-only effect; inactive = no such curve, though single readings can be large or run the other way. Some of the results follow.

What follows are compounds tested against Galactocerebrosidase (Homo sapiens) (UniProt P54803) (assay: A Novel Cell-Based Assay to Identify Small Molecules for B -Galactocerebrosidase). Conditions: 145M-Twi-hGALC-G270D cells (Twitcher mouse brain line with human GALC G270D), HMU-beta-Gal fluorescence, 48 h; series mostly up to 57.5 µM; activation: at the top concentration.
Summary of the method: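 Fluorescence readout: HMU-β-gal cleavage by mutant GALC (0.1 mM final, citrate/phosphate pH 5.2 with 1 mg/mL taurocholate), stopped with carbonate/bicarbonate plus Triton X-100. Cells: murine Twitcher 145M-Twi expressing human G270D GALC; qHTS for activators.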
Also: 0% is about no effect; nearly all actives have a fitted effect of over 65% in size.

UniProt P54803, sequence (P54803 whole entry, looked up): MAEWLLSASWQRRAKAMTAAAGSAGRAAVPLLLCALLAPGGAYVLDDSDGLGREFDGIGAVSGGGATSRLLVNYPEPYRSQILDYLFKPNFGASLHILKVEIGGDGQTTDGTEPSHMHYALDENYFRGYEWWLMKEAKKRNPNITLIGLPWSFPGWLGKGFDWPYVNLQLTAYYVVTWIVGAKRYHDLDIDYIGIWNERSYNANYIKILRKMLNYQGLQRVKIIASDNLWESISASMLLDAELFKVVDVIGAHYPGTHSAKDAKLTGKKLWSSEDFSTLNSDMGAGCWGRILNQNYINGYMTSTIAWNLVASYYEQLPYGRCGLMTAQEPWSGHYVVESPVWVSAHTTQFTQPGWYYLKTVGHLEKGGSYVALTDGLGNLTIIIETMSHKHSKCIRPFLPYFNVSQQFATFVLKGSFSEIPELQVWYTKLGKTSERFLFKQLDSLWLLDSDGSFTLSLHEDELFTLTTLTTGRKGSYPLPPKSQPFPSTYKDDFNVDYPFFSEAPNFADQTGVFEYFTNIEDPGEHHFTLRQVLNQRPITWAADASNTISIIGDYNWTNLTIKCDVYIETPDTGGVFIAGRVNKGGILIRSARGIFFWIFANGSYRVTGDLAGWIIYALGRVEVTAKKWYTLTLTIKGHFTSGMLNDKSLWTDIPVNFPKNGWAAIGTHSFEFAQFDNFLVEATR

activation, inactive:
Cc1ccc(NC(=O)Cn2c(=O)n(Cc3ccc4c(c3)OCO4)c(=O)c3ccc(C(=O)NC4CCCCC4)cc32)cc1 -13.7%
Cc1cccc(NC(=O)CSc2nc(=O)n(CCN3CCOCC3)c3c2CCC3)c1C -15.6%
C=CCN1C[C@H](C(=O)N(CCCN(C)C)C(=O)NCC)C[C@@H]2c3cccc4[nH]cc(c34)C[C@H]21 -17.1%
Cc1cccc(Cn2nnc3c(=O)[nH]c(C4CCN(C(=O)c5ccccc5F)CC4)nc32)c1 -17%
CCCC(=O)NCc1nc2cccnc2n1Cc1ccc(F)cc1 14.1%
Cc1cc([N+](=O)[O-])ccc1NC(=O)CSc1nccn1C -1.84%
O=C(CSc1cn(CC(=O)N2CCOCC2)c2ccccc12)Nc1ccccc1C(F)(F)F -12.7%
COc1ccc(CNC(=O)c2cnc(N3CCCC3)nc2C)cc1 -0.767%
COc1ccc(S(=O)(=O)NCc2cccn2Cc2cccc(C)c2)cc1OC -11.9%
CCCCc1nn2c(=O)cc(COC(=O)c3ccccc3NC(=O)C3CCCCC3)nc2s1 -12.9%
CCOc1ccc(NC(=O)c2cc3c(=O)n4cccc(C)c4nc3s2)cc1 -17.1%
CCN(C(=O)CSc1nnc(C)n2c1cc1occc12)c1ccccc1 -10%
Cc1ccccc1C(=O)Nc1nc2c(s1)CC(C(C)(C)C)CC2 (stereo unspecified) -9.84%
COc1ccc2c(c1)c1c(c(=O)n(-c3cccc(Cl)c3)c(=O)n1C)n2C -6.44%
COc1ccc(-c2c(C)c3ccc(O)c(CN4CCN(C)CC4)c3oc2=O)cc1OC -9.31%
CCOC(=O)CSc1nc2c([nH]c3ccccc32)c(=O)n1-c1ccc(OCC)cc1 -13.3%
COc1ccc(CSc2nc3ccncc3n2Cc2nc(-c3ccc(OC)c(OC)c3)oc2C)cc1 -14.4%
Cc1cccc2sc(N(Cc3cccnc3)C(=O)C3CCCCC3)nc12 -12.9%
COc1ccc(S(=O)(=O)c2cn(CC(=O)Nc3ccccc3)c3ccc(Cl)cc3c2=O)cc1 -7.7%
O=C(Cn1cc(SCc2cccc(C(F)(F)F)c2)c2ccccc21)N1CCCCCC1 -15.2%
CN1C(=O)C2CCCCN2c2ccc(C(=O)NCc3ccccc3Br)cc21 (stereo unspecified) -18%
COc1cc(NC(=O)CCc2c(C)nc3c(c(C)nn3-c3ccccc3)c2C)cc(OC)c1OC -35.5%
COc1cccc2cc(-c3nc(-c4cccs4)no3)c(=O)oc12 -11.5%
O=C(CSc1nc2c([nH]c3ccccc32)c(=O)n1-c1ccc(F)cc1)N1CCCCCC1 -12.2%
COc1ccccc1CNC(=O)Nc1ccc2c(c1)N(C)C(=O)c1ccccc1S2 0.0212%
Clc1cccc(-c2noc3ncnc(NC4CCCCC4)c23)c1 -42.8%
COc1ccc(Br)cc1CNC(=O)CCC(=O)N1CCSc2ccccc21 -6.36%
O=C(Nc1ccc(Br)cc1)c1ccc(Br)c(S(=O)(=O)NCc2ccccc2)c1 11.2%
CCOc1ccc(CNC(=O)Cn2nc(C)c3sc4ccccc4c3c2=O)cc1 0.298%
CCOC(=O)c1c(C)c(C(=O)NCCc2ccc(OC)cc2)c(C)n1CC -6.92%
Cc1ccc(NS(=O)(=O)c2c(C(=O)N3CCCCCC3)c(C)n(C)c2C)cc1F -16.6%
COc1cccc(-c2cc(C(=O)NCCc3ccc(C)cc3)[nH]n2)c1 -13.1%
CC(=O)c1c(C)n(-c2cccc(C)c2)c2ccc(OC(=O)COc3ccccc3)cc12 -31.1%
CCN(Cc1ccccc1)C(=O)Nc1ccc2c(c1)N(C)C(=O)c1ccccc1S2 -21.7%
Cc1ccc(C(=O)Nc2ccc3c(c2)N(C)C(=O)c2ccccc2S3)cc1F -12.5%
COc1ccc(C)cc1NC(=O)CN1C(=O)CCc2cc(S(=O)(=O)N3CCOCC3)ccc21 -22.1%
Cc1ccc(N(C)S(=O)(=O)c2ccc3[nH]cc(C(=O)O)c(=O)c3c2)cc1C -0.685%
C=Cc1ccc(Cn2c(=O)n(-c3ccccc3C)c(=O)c3c4c(sc32)CN(C(C)=O)CC4)cc1 -26.2%
CCc1nn(CC(=O)Nc2c(C)cc(C)cc2C)c(=O)c2cc3sccc3n12 -19%
CC(=O)c1ccc(NC(=O)CSc2nc(-c3ccccc3F)nc3c2c(=O)n(C)c(=O)n3C)cc1 -7.96%
Cc1ccc(C(c2sc3nc(-c4ccco4)nn3c2O)N2CCCCC2)cc1 (stereo unspecified) 1.98%
Cc1ccc(NC(=O)C2CCN(c3nc4ccccc4[nH]3)CC2)cc1Cl -8.18%
O=C(NCc1cccs1)c1ccc(CSc2nc3ccncc3n2Cc2cccc(F)c2)cc1 -9.78%
CN1CCC(=C2c3ccccc3C=Cc3ccccc32)CC1 -13.6%
CCOC(=O)c1c(-c2ccc(C)cc2)csc1NC(=O)c1cc(=O)c2cc(C)c(C)cc2o1 2.17%
CC1Cc2cc(S(=O)(=O)NCc3ccc(F)cc3)ccc2N1C(=O)C1CCC1 (stereo unspecified) -0.643%
COc1ccc(C2c3c(oc4ccc(F)cc4c3=O)C(=O)N2Cc2ccc3c(c2)OCO3)cc1 (stereo unspecified) 7.58%
CCOc1ccc(C(CC(=O)O)N2Cc3ccccc3C2=O)cc1OC (stereo unspecified) -9.49%
Cc1ccc(N2CC(c3nc4ccccc4n3CCC3CCCCC3)CC2=O)cc1 (stereo unspecified) -12.4%
O=C(Nc1ccccc1Br)C1CCCN(S(=O)(=O)c2cccc3nsnc23)C1 (stereo unspecified) -3.41%
COc1cccc(N2CCN(S(=O)(=O)c3ccc4[nH]c5c(c4c3)CCCC5)CC2)c1 0.75%
O=C1CC(c2ccccc2)Cc2[nH]c(=O)c(C(=O)Nc3cccc(F)c3)cc21 (stereo unspecified) -12%
O=C(NCCS(=O)(=O)N1CCN(c2ccccc2)CC1)C(c1ccccc1)c1ccccc1 -15.5%
Cc1cccc(NC(=O)c2c(NC(=O)C(F)(F)F)sc3c2CCCCC3)c1 -16.4%
CCOC(=O)c1cccc(Nc2c3c(nc4ccccc24)CCC3)c1 -13.1%
N#C/C(=C\c1ccccc1)c1nc(-c2cc3cc(Br)ccc3oc2=O)cs1 -15.3%
COC(=O)c1ccccc1NC(=O)NCCc1c(C)nn(C)c1C 0.973%
CCc1ccc(CNCc2c(C(=O)O)n(Cc3cccc(F)c3)c3cc(OC)ccc23)cc1 -9.46%
Cc1cccc(N(C)C(=O)c2cc(S(=O)(=O)N3CCCC3)cn2C)c1 -10.5%
Cc1noc(C)c1S(=O)(=O)N1CCC(C(=O)N2CCN(c3ccccc3)CC2)CC1 -8.65%
CCOC(=O)c1oc2c(c1C)-c1nn(Cc3ccc(Cl)cc3)cc1CC2 1.39%
O=C(CSc1nc2c([nH]c3ccccc32)c(=O)n1-c1ccc(F)cc1)N1CCCCC1 -0.896%
CCc1ccc(OCC(=O)N(Cc2ccc(Cl)cc2)C2CCS(=O)(=O)C2)cc1 (stereo unspecified) 5.32%
COc1ccccc1NC(=O)Cn1nnc(C(=O)NCc2ccc3c(c2)OCO3)c1N 8.32%
Cn1c(NCCO)nc2c1c(=O)n(Cc1ccccc1Cl)c(=O)n2C -10.9%
CCC(C)NC(=O)Cn1c(=O)cc(-c2ccccc2)c2c(C)nn(C)c21 (stereo unspecified) -4.04%
Cc1c(C(=O)N(C)C)sc2c1c(=O)n(-c1ccc(Cl)c(Cl)c1)c(=O)n2CC(=O)Nc1cccc(C(F)(F)F)c1 -12.8%
COc1cccc(N2CCN(C(=O)c3c(C)oc4ncnc(N5CCOCC5)c34)CC2)c1 -8.8%
CCn1c(=O)n(CC)c2cc(N3CCCCC3)c(NC(=O)Nc3ccccc3Cl)cc21 -2.92%
CC(C)c1ccc(NC(=O)CN(C)S(=O)(=O)c2ccc3c(c2)c(=O)n(C)c(=O)n3C)cc1 7.33%
Cc1nnc(C(=O)NC(C)(C)c2nc(C(=O)NCc3ccc(F)cc3)c(O)c(=O)n2C)o1 -17.1%
COc1cccc(Oc2nc3c(c(=O)n(Cc4ccccc4F)c(=O)n3C)n2C)c1 -14.9%
COc1cc2[nH]c(=O)n(CCCCCC(=O)N3CCN(c4cccc(C(F)(F)F)c4)CC3)c(=O)c2cc1OC -5.84%
O=C(CCS(=O)(=O)c1cc(Br)cc2c1N(C(=O)C1CC1)CC2)Nc1ccc(Br)cc1F -12.4%
CCOC(=O)Cc1ccc(NC(=O)NCc2ccc3c(c2)CCN3C(=O)CC)cc1 -5.33%
Cc1ccc(NS(=O)(=O)c2cc(Br)cc3c2N(C(=O)C2CC2)CC3)cc1C -6.93%
CCCS(=O)(=O)c1c(Nc2ccccc2C)sc(C(=O)c2ccccc2)c1N -18.4%
COC(=O)c1ccc(Cn2nnc3sc4c(c3c2=O)CCC(C)C4)cc1 (stereo unspecified) -7.92%
CCOc1ccccc1CNC(=O)CCn1ccc2cc(S(=O)(=O)N3CCC(C)CC3)ccc21 -3.93%
COc1ccc(NC(=O)Cn2c(=O)oc3cc(S(=O)(=O)N4CCC(C)CC4)ccc32)c(OC)c1 -9.57%
CCc1ccccc1N(C)C(=O)Cn1cnc2sc(C)c(S(=O)(=O)N3CCN(c4ncccn4)CC3)c2c1=O -3.44%
CC(=O)N(Cc1cccnc1)c1nc2c(C)c(C)ccc2s1 1.43%
Cc1ccc(Cl)cc1NC(=O)C1CCC(CNS(=O)(=O)c2cccc3nsnc23)CC1 (stereo unspecified) -19.6%
O=Cc1ccc(O)c(O)c1O -11%
CCc1ccc2c(c1)NC(c1cccs1)=NC(c1ccc(F)cc1)=N2 -15.6%
COc1ccc2c(CNCCc3cccs3)c(C(=O)O)n(Cc3ccccc3)c2c1 -9.77%
O=C(CCCN1C(=O)C(c2ccccc2)Oc2cccnc21)Nc1ccc(Br)cc1F (stereo unspecified) -10.9%
O=C(NC1CCCc2ccccc21)c1ccc2c(c1)sc1nc(-c3ccc(F)cc3)cn12 (stereo unspecified) -12.5%
COc1ccc(-c2nc(SCC(=O)NCCc3ccc(OC)c(OC)c3)n[nH]2)cc1 -0.158%
CCOc1ccc(CCNC(=O)c2cc3c(=O)[nH]c4ccc(C)cc4c3s2)cc1OCC -13.4%
CCCCN(CC)CCNC(=O)c1cc2c(=O)oc3ccc(C)cc3c2s1 0.754%
CCn1c(=O)c2cc(C(=O)NCCc3cc(OC)ccc3OC)sc2c2ccccc21 -14.3%
CCc1ccc2oc(-c3ccc(NC(=O)c4ccc(OC)c(Br)c4)cc3)nc2c1 -4.43%
Cc1ccc(-n2c(C)nc3c(cnn3-c3ccccc3C)c2=O)cc1F -21.8%
O=C(NCc1cccc(F)c1)c1ccc(-n2cnc3cccnc32)cc1 -12.4%
Cc1cccc(Cn2cc(C(=O)Nc3ccc(F)c(C(F)(F)F)c3)ccc2=O)c1 -9.78%
